Assay results reported in PubChem BioAssay (NCATS).
Inconclusive means that the source gave no clear call. Such entries were picked first, then a sample of the others. For part of these data: No potency is given beside an inconclusive call; the fits are too rough. Calls of active or inactive are those of the source. Unless noted, the call rests on the fitted dose curve; in most records, active means well fitted curve in the direction sought with a large enough effect; inconclusive means small, poorly fitted or top-dose-only effect, or another doubt; inactive means no such curve, though single readings can be large; an effect the other way counts as inactive or inconclusive.

Legend:
[1] = test system: Zika virus NS2B-NS3 protease (linked construct); assay: Primary screen NINDS Rhodamine qHTS for Zika virus inhibitors (AID 1347160)
Summary of the method: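 Percent inhibition, normalized to uninhibited and enzyme-free controls, is fitted to a 4-parameter Hill equation. Fluorescence change comes from a 15-min cleavage of 1.5 microM bis-peptide Rhodamine110 substrate by 25 nM linked NS2B-NS3 at room temperature.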

[2] = UWB1.289 Cancer Cell Toxicity qHTS against the NCATS CANVASS Library (AID 1347347)
Summary of the method: (§1)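 Viability was assessed by adding CellTiter-Glo reagent to treated cultures and reading luminescence after 15min at room temperature. Treatment lasted 72 h at 37 degrees C/5% CO2, using an 11-point series on 1000 cells/well.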

[3] = HEK-293 Cancer Cell Toxicity qHTS against the NCATS CANVASS Library (AID 1347355)
Summary of the method: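 Luminescent ATP read-out (CellTiter-Glo, 15min at room temperature) measures survival after cells face an 11-point compound series for 72 hours at 37 degrees C/5% CO2.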

[4] = KB-8-5-11 Cancer Cell Toxicity qHTS against the NCATS CANVASS Library (AID 1347364)
Summary of the method: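 Plate 500 KB-8-5-11 cells per well in DMEM + 10% FBS, add compounds by pin transfer, incubate 72 hr at 37C. Add CellTiter-Glo, wait 10 minutes at room temperature, read luminescence.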

[5] = G06 Cancer Cell Toxicity qHTS against the NCATS CANVASS Library (AID 1347368)
Summary of the method: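 Dog G06 glioma line, 500 cells/well; cpds pin-transferred, 11-pt; 72 hr, 37C/5% CO2; CellTiterGlo luminescence (ATP) endpoint.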

[6] = qHTS for Inflammasome Signaling Inhibitors: IL-1-beta AlphaLISA screen against the NCATS CANVASS Library (AID 1347379)
Summary of the method: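 THP-1 cells pretreated 1 hr with compound (up to 57.5 uM final), then stimulated with LPS (250 ng/mL final) and ATP (1.25 mM final). Secreted IL-1B measured by AlphaLISA after 16 hr; glyburide as positive control.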

[7] = qHTS assay for small molecule disruptors of mitochondrial membrane potential screened against the NCATS CANVASS Library (AID 1347389)
Summary of the method: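 HepG2, 2,000 cells/well, attached overnight; compound 1 hr, 37C, 5% CO2; Mito-MPS dye 30 min, 37C; fluorescence 535 nm (monomer) and 590 nm (aggregate); decreased 590/535 ratio = depolarization.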

[8] = qHTS for inhibitors of ER calcium dysfunction: SERCaMP assay screened against the NCATS CANVASS Library (AID 1347393); conditions: SH-SY5Y GLuc-SERCaMP (Gaussia luciferase released on ER calcium loss) secretion, thapsigargin, luminescence; series mostly up to 76.6 µM
Summary of the method: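 qHTS in SH-SY5Y reporter cells: 16 h compound pretreatment, 4 h thapsigargin, then secreted Gaussia luciferase measured by luminescence.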

[9] = qHTS for inhibitors of Rabies Virus screened against the NCATS CANVASS Library (AID 1347402; calls by dose curve)
[10] = HPAF-II Cancer Cell Toxicity qHTS against the NCATS CANVASS Library (AID 1347346)
Summary of the method: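 Luminescence from CellTiter-Glo, added after 72 h compound exposure and a 15 min room-temperature incubation, served as the viability readout. HPAF-II cells (1000/well) received an 11-point concentration series.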

[11] = Panc-1005 Cancer Cell Toxicity qHTS against the NCATS CANVASS Library (AID 1347349)
Summary of the method: as §1

[12] = U-118MG Cancer Cell Toxicity qHTS against the NCATS CANVASS Library (AID 1347351)
Summary of the method: as §1

[13] = A2780 Cisplatin Sensitive Ovarian Cancer Cell Toxicity qHTS against the NCATS CANVASS Library (AID 1347353)
Summary of the method: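 Luminescent ATP content (ATPLite, 10 min at room temperature) served as the read-out after cells had been exposed to compounds for 72 hours at 37 °C. Dosing followed an 11-point concentration series.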

[14] = MCF7 Cancer Cell Toxicity qHTS against the NCATS CANVASS Library (AID 1347369)
Summary of the method: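 Cytotoxicity is measured by ATP content: MCF7 cells at 500 per well receive an 11-point compound series and, after 72 hr at 37C, are lysed with CellTiterGlo for luminescence.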

[15] = target: Nuclear receptor subfamily 1 group I member 3 (Homo sapiens) (UniProt Q14994); assay: qHTS for Constitutive Androstane Receptor (CAR) Antagonist screened against the NCATS CANVASS Library (AID 1347372)
Sequence of UniProt Q14994 (Q14994 whole entry, looked up): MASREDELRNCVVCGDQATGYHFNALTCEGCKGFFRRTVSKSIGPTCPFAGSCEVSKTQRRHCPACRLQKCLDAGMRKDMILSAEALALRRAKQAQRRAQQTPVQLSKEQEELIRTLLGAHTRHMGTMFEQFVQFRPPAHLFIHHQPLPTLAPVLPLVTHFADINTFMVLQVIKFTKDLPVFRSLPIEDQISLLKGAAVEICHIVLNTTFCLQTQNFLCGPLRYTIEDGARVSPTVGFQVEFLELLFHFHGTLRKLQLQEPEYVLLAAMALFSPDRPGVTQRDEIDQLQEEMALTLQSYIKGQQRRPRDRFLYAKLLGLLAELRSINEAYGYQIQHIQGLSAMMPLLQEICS
Summary of the method: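 HepG2 cells stably carrying hCAR and a CYP2B6-2.2kb luciferase reporter were exposed to compounds plus 50 nM CITCO for 24hr at 37C. CAR activity was read by ONE-Glo luminescence, with viability measured first by CellTiter-Fluor.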

[16] = qHTS for inhibitors of Wild type Zika virus screened against the NCATS CANVASS Library (AID 1347396)
Summary of the method: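 Using ATP-based luminescence (CellTiter Glo), this screen scores rescue of Vero 766 cells from wild-type Zika killing at 72 h post-infection. Compounds are tested in a concentration series.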

[17] = Primary qHTS for inhibitors of nuclear receptor binding SET domain protein 2 (NSD2) in an isogenic RCH-ACV NSD2 p.E1099K mutant (9B) (AID 1645876)

**Q.** For `CC[C@]12C=CCN3CC[C@]4(C(=C(C(=O)OC)C1)Nc1ccccc14)[C@@H]32`, which Potency [1] is on record?
**A.** inconclusive [inhibitor, partial curve]

**Q.** What about the Potency [2] of the same molecule?
**A.** inactive

**Q.** What about the Potency [3] of the same molecule?
**A.** inconclusive [cytotoxic, single point]

**Q.** And the Potency [4]?
**A.** inactive

**Q.** And the Potency [5]?
**A.** inconclusive [cytotoxic, partial curve]

**Q.** And the Potency [6]?
**A.** inconclusive [inhibitor, single point]

**Q.** What about the Potency [7] of the same molecule?
**A.** inactive

**Q.** And the Potency [8]?
**A.** inconclusive [inhibitor, full curve]

**Q.** And the Potency [9]?
**A.** inactive

**Q.** With `C/C=C1/CN2CC[C@]34C(=C(C(=O)OC)[C@H]1C[C@H]23)Nc1ccccc14` as the molecule, how does the Potency [1] read?
**A.** inactive

**Q.** What about the Potency [10] of the same molecule?
**A.** inconclusive [cytotoxic, partial curve]

**Q.** And the Potency [2]?
**A.** inactive

**Q.** What about the Potency [11] of the same molecule?
**A.** inconclusive [cytotoxic, partial curve, poor fit]

**Q.** What about the Potency [12] of the same molecule?
**A.** inactive

**Q.** What about the Potency [13] of the same molecule?
**A.** inconclusive [cytotoxic, partial curve, poor fit]

**Q.** What about the Potency [4] of the same molecule?
**A.** inconclusive [cytotoxic, partial curve]

**Q.** And the Potency [5]?
**A.** inconclusive [cytotoxic, full curve]

**Q.** And the Potency [14]?
**A.** inconclusive [cytotoxic, partial curve, poor fit]

**Q.** And the Potency [15]?
**A.** inconclusive [inhibitor, single point]

**Q.** And the Potency [6]?
**A.** inconclusive [inhibitor, single point]

**Q.** What about the Potency [8] of the same molecule?
**A.** active: 19.3 µM

**Q.** And the Potency [16]?
**A.** inactive

**Q.** Which results are given for `C=CCN1CC[C@]23c4c5ccc(O)c4O[C@H]2[C@@H](O)CC[C@@]3(O)[C@H]1C5`?
**A.** Potency [1]: inconclusive [inhibitor, single point]; Potency [17]: inactive
